Source: paper PMC4336329 (PLoS ONE, 2015)
About 2,200 (0.71%) of roughly 310,000 compounds showed an effect of 50% or more. Effects have a minus sign here. The list shows a part of the results.

Biological target: human ether-à-go-go-related gene (hERG) potassium channel (human, UniProt Q12809)
Test: primary screen, population patch clamp on CHO cells stably expressing hERG

Chain of human ether-à-go-go-related gene (hERG) potassium channel (Q12809 whole entry, looked up): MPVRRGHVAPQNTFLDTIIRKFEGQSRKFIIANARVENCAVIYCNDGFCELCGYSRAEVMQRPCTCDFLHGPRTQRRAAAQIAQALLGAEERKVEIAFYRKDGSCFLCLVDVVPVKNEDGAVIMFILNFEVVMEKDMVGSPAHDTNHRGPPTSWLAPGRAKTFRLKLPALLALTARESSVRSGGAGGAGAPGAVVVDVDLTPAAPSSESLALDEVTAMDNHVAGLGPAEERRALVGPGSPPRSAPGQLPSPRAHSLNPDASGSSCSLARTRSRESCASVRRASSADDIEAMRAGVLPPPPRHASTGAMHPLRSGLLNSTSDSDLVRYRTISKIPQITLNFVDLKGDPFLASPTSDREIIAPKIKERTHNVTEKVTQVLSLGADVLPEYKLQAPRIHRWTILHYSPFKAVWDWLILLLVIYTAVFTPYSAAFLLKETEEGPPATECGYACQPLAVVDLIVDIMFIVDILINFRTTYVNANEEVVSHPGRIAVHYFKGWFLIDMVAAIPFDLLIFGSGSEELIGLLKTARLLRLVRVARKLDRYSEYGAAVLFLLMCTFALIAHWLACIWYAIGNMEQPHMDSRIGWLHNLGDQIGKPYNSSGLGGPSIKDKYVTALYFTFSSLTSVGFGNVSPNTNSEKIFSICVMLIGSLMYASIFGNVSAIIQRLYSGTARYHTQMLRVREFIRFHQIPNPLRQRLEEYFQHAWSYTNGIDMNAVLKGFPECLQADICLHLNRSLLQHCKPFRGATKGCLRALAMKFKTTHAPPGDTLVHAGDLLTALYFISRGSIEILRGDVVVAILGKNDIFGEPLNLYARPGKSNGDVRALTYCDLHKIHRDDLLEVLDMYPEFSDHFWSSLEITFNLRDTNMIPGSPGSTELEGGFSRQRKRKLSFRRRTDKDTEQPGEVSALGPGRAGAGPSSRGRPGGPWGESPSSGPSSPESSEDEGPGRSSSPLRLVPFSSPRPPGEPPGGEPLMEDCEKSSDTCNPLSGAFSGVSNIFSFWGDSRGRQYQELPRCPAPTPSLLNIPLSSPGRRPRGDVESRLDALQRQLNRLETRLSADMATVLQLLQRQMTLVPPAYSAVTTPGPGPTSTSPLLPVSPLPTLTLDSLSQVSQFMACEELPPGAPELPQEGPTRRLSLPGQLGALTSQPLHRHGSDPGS

Structure (SMILES) | hERG current change (%, negative = inhibition) at 1uM [%]
OC(CNC1Cc2ccccc2C1)c1ccccc1 (stereo not drawn) | 10.3
Cc1ccc(C(=O)Nc2ccccc2C(=O)NC(CC(=O)O)C(=O)O)cc1 (stereo not drawn) | 1.68
O=C(COC(=O)c1ccc([N+](=O)[O-])o1)Nc1cccc2ccccc12 | 15.1
CN(CC(=O)Nc1cccc(S(=O)(=O)NC2=NCCC2)c1)Cc1cccc(F)c1 | 6.3
CCOC(=O)N1CCN(c2ccccc2O)CC1 | 3
COc1cc(C(=O)N2CCCN(c3nc4cc(C)ccc4cc3C#N)CC2)cc(OC)c1OC | -11.6
Cc1cc(NC(=O)c2cc3ccccc3o2)cc(C)c1OCC(=O)N1CCOCC1 | -9.6
CCCN(CC(=O)Nc1ccccc1OC)C(=O)CSC(=S)N1CCCC1 | -10.8
O=C(CCC(=O)N(CC(=O)NC1CCCCC1)Cc1ccccc1)Nc1nccs1 | 16.8
CCCCN(CCCC)c1nc2ccccc2nc1C(C#N)C(=O)NCCCOC (stereo not drawn) | 8.02
COc1ccc(NC(=O)COC(=O)COc2cccc(Br)c2)cc1OC | 11.2
CCOC(=O)COc1ccc(S(=O)(=O)NC2CC2)cc1 | 18.9
CCN(CC)c1ccc(CNc2ccc3c(c2)ncn3C(C)(C)C)cc1 | 13.3
O=C(N=Nc1c(O)[nH]c2ccccc12)c1ccccc1NS(=O)(=O)c1cccs1 | 3.11
NS(=O)(=O)c1cc(C(=O)NCCOc2ccccc2)c(Cl)cc1Cl | 16.7
Cc1cc(C)c(NC(=O)Cn2nnc(C(=O)NCCc3ccccc3)c2N)c(C)c1 | 11.2
O=C(COc1ccc(Cl)cc1)N1CCN(C(=O)c2cccs2)CC1 | -23.8
CCc1ccc(NC(=O)CC2C(=O)N(c3ccc(OC)cc3)C(=O)N2CCOC)cc1 (stereo not drawn) | 3.77
O=C(/C=C/c1ccccc1)C1=C(O)C(=O)N(CCO)C1c1ccccc1[N+](=O)[O-] (stereo not drawn) | 11.9
O=C(Cn1ncc2c(=O)oc3ccccc3c21)NCCc1ccsc1 | -3.1
Cc1ccccc1C(OCCN(C(C)C)C(C)C)c1ccccc1.O=C(O)/C=C\C(=O)O (stereo not drawn) | -38.4
COc1ccc2c(c1OC)C(=O)N(c1cccc(C)c1)C2 | 4.4

Structure (SMILES) | hERG current change (%, negative = inhibition) at 1uM [%]
COCCCN(C(=S)Nc1cc(C)cc(C)c1)C(C)c1ccncc1 (stereo not drawn) | -26.1
Cc1cc(OCC(=O)OCC(=O)NCCN2C(=O)CSC2=O)ccc1Cl | 10.2
O=C(O)C(Cc1ccccc1)N1C(=O)CCC1=O (stereo not drawn) | 13.2
Cc1[nH]n(-c2ccccc2)c(=S)c1C=Nc1ccc([N+](=O)[O-])cc1 | 15.8
O=C(/C=C/c1ccco1)N1CCN(S(=O)(=O)c2ccc(F)c(F)c2F)CC1 | 1.12
CCOC(=O)/C(=C\c1ccc(OC(F)F)cc1)C1=Nn2c(nnc2-c2ccc(Cl)cc2)SC1 | 13.3
COCCNC(=O)CCCn1c(=O)c2cc(OC)c(OC)cc2n(CC(=O)Nc2ccccc2OC)c1=O | 8.78
O=C(Cn1nnc2ccccc21)OCC(=O)c1ccccc1 | 12.6
O=C(O)C(=O)O.c1ccc(-c2ccccc2OCCOCCN2CCNCC2)cc1 | 9.05
Cc1ccc(S(=O)(=O)NCc2cccnc2)cc1 | 13
CC(C)(C)c1ccc(C2=NC(=O)C(CC(=O)O)S2)cc1 (stereo not drawn) | 18.2
CC1=C(C(=O)Nc2cc(C)ccc2C)C(c2cccs2)NC(=S)N1 (stereo not drawn) | 9.49
COc1cnc(-c2ccccn2)nc1Oc1ccccc1Cl | 20.4
Cc1cc(C)cc(OCC(=O)NCCN2CCOCC2)c1 | 2.67
CCCCCCC(=O)N1C/C=C\C(c2ccc(OC)cc2)N(Cc2ccc(F)cc2)C(=O)[C@H]1Cc1ccccc1 (stereo partly drawn) | 2.56
CCSc1nc2c(cnn2-c2ccc(C)cc2)c(=O)[nH]1 | 12.9
CNc1nc(OC)nc(N2CCOCC2)n1 | 10.7
CC1CN(C(=O)C2CC(=O)N(c3ccc(Cl)cc3)C2)CC(C)O1 (stereo not drawn) | 2.47
Cc1noc(C)c1CSc1ccccc1C(=O)O | 17.6
CN(CCOc1ccc(Cl)cc1)C(=O)c1ccccc1SCC(=O)N1CCCC1 | -0.619
COc1ccc(CCNC(=S)N2CCN(S(=O)(=O)c3ccccc3)CC2)cc1 | 10.2
Cc1ccc(COC(=O)c2ccc3c(c2)C(=O)N(CCCN2CCOCC2)C3=O)cc1 | 7.6

Structure (SMILES) | hERG current change (%, negative = inhibition) at 1uM [%]
C=CCN1N=C(c2ccc(Cl)s2)CSC1=O | 22.3
COc1ccccc1NS(=O)(=O)c1cc(NC(=O)CCC2CCCC2)ccc1N1CCOCC1 | 9.04
O=C(COC(=O)COc1cccc2ccccc12)NCC(F)(F)F | 7.55
Cc1cc(C)c2nc(SCC(=O)Nc3ccc(S(=O)(=O)N4CCCC4)cc3)c(C)cc2c1 | -3.94
Cc1ccc(Nc2nc3ccccc3n3cnnc23)c(Cl)c1 | 8.03
COc1ccccc1NC(=O)CN1CCN(c2ccccc2)CC1 | 12.4
CCCCC(=O)Nc1ccc(C(=O)NCCCn2ccnc2)cc1 | -5.79
O=C(COCc1cc(-c2cccs2)on1)NC1CCCCC1 | 18.4
O=C(Nc1ccc2c(c1)CCCN2C(=O)c1cccs1)c1c(F)cccc1Cl | 10.5
CCCC[n+]1cc(=N)o[n-]1.Cl | 6.54
CC(C)CC(N=Cc1c(O)c2ccccc2oc1=O)C(=O)O (stereo not drawn) | 11.1
COc1cccc(-c2nnc(SCCC(=O)O)n2C)c1 | 5.01
C[C@H](NC(=O)c1nc[nH]c1C(=O)N[C@@H](Cc1ccccc1)C(=O)OCc1ccccc1)C(=O)OC(C)(C)C | 10.7
CCOC(=O)Cn1nc(CC)c2ccccc2c1=O | -4.77
COc1ccc(C(=O)N2CCC(C(=O)N3CCN(Cc4ccccc4)CC3)CC2)cc1 | 11.8
CCOC(=O)c1c(NC(=O)COc2ncnc3ccccc23)sc(C(C)=O)c1C | 0.839
CCC(=O)Nc1nonc1-c1nc2ccccc2n1N(C(=O)CC)C(=O)CC | 11.4
COc1ccccc1NC(=O)c1ccc(S(=O)(=O)N(C)c2ccccc2)cc1 | 4.53
COCCCN1C(=O)c2ccc(C(=O)OCC(=O)N(CCC#N)c3cc(C)cc(C)c3)cc2C1=O | -1.58
Cc1[nH]nc2c1C1(CCN(C(=O)OCc3ccccc3)CC1)C(C#N)=C(N)O2 | 3.17
Cc1cccc(NC(=O)Cn2c([N+](=O)[O-])cnc2C)c1C | 13.1
Cc1cc([N+](=O)[O-])cc(C)c1OCC(=O)N/N=C/c1ccc(OC(=O)c2ccccc2Br)cc1 | 7.4

Structure (SMILES) | hERG current change (%, negative = inhibition) at 1uM [%]
N#Cc1ccc(/C=N/N=C(N)N)cc1 | 1.69
C=CCN1CCN(C(CCC)c2nnnn2Cc2ccco2)CC1 (stereo not drawn) | 17.6
COc1ccc(N/N=C(\C=N\O)C(=O)c2ccc(OC)cc2)cc1 | 0.602
Cc1nn(CCc2nn[nH]n2)c2nc(-c3ccc(C4CCCCC4)cc3)cc(C(F)(F)F)c12 | 4.58
Cc1cc2cc(C)c3nnc(SCC(=O)NCc4ccco4)n3c2cc1C | -5.49
COC(=O)c1ccc(C2/C(=C(/O)c3ccc4c(c3)CC(C)O4)C(=O)C(=O)N2Cc2cccnc2)cc1 (stereo not drawn) | 13.5
CCc1ccc(CNc2ccc3c(c2)ncn3C(C)(C)C)cc1 | 8.57
Cl.Oc1ccc(Cl)cc1CNCC1CCCCC1 | 13
Cc1ccccc1-n1c(-c2cccnc2)n[nH]c1=S | 8.97
Cc1ccc([N+](=O)[O-])cc1Nc1nc(N2CCCC2)nc(N2CCCC2)n1 | 19
Cc1cc(/C=C(\C#N)C(=O)O)c(C)n1CCC(C)C | 10.9
c1c2c(cc3sc(N4CCOCC4)nc13)OCCO2 | 1.67
Cc1cccc(NC(=O)c2cccc(NC(=O)c3ccccc3)c2)n1 | -6.12
O=C(NCC(=O)N(c1cccnc1)C(C(=O)NC1CCCC1)c1ccco1)c1cccs1 (stereo not drawn) | 9.13
COc1cc(/C=N/NC(=O)c2cc(C34CC5CC(CC(C5)C3)C4)[nH]n2)ccc1O | -7.2
COC[C@]12CN(C)C3C4[C@H](OC)[C@H]1C3([C@@H](OC)C[C@H]2O)[C@@H]1C[C@@]2(O)[C@H](OC(=O)c3ccccc3)[C@@H]1[C@]4(OC(C)=O)[C@@H](O)[C@@H]2OC | 4.99
CC(=O)Nc1ccc(NC(=O)CCNC(=O)c2ccccc2Cl)cc1 | 6.77
CCS(=O)(=O)N1CCC(C(=O)NCCCN2CCCCCC2)CC1 | -4.37
c1ccc(CNn2nnnc2-c2ccccc2)cc1 | 2.07
Cc1cc(C)c(OCCCON2C(=O)CCC2=O)c(Br)c1 | 7.85
COC(=O)c1noc(-c2ccc(C)cc2)n1 | 0.393
